Source: PubChem BioAssay AID720709 (National Center for Advancing Translational Sciences (NCATS), 2013)
The whole screen tested about 360,000 compounds, of which about 520 (0.14%) were called active. Inconclusive results, whose numbers are uncertain, are shown with a selection of clear calls. Calls come from the whole dose curve; as a rule, active = well fitted inhibition curve with a large enough effect; inconclusive = small, poorly fitted or top-dose-only effect; inactive = no such curve, though single readings can be large or run the other way. Potencies of inconclusive entries are left out as doubtful fits.

molecular target: Rap guanine nucleotide exchange factor 3 (Homo sapiens) (UniProt O95398); experiment: qHTS for Antagonist of cAMP-regulated guanine nucleotide exchange factor 3 (EPAC1): primary screen; conditions: EPAC1 GEF assay, Rap1b-BODIPY-GDP exchange fluorescence; activity change, negative = inhibition: at 115 µM (top of the series); note: nearly all actives have a fitted effect of over 50% in size;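 for activity change, negative = inhibition: plate controls were vehicle for no effect and positive control for full effect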
Chain of UniProt O95398 (O95398 whole entry, looked up): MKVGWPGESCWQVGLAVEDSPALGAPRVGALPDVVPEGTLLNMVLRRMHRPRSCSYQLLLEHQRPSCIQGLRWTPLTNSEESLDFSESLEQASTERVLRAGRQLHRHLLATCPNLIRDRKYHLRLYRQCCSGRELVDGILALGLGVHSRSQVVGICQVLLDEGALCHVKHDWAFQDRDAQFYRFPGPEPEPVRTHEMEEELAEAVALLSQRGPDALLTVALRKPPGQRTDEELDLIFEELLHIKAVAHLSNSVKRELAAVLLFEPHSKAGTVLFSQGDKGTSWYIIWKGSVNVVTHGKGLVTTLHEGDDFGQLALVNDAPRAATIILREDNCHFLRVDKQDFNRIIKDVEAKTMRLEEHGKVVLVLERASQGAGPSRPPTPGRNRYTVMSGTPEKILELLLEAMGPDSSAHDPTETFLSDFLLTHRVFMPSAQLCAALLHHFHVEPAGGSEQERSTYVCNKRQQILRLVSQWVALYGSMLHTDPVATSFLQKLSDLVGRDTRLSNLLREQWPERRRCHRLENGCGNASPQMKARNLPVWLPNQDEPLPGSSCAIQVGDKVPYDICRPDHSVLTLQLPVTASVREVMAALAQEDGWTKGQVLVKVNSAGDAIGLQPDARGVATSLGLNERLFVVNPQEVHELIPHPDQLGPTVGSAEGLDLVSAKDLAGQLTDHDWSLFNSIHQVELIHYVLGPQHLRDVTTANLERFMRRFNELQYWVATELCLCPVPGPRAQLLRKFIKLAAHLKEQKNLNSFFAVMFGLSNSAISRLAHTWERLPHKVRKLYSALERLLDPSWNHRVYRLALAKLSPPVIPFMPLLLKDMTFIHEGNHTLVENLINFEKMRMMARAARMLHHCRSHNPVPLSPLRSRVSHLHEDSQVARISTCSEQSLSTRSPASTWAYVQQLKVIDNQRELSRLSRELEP
Potency is the fitted concentration of half-maximal effect; tags give direction and shape of the fitted curve.

| Compound | Potency | activity change, negative = inhibition |
| --- | --- | --- |
| CCOC(=O)Cn1nc(C)c(NC(=O)COc2ccccc2[N+](=O)[O-])c1C | inconclusive [inhibitor, single point] |  |
| Cc1ccc(NC(=O)CN2C(=O)S/C(=C\c3cccn3-c3cccc(C(=O)O)c3)C2=O)c(C)c1 | inconclusive [inhibitor, partial curve] |  |
| Cc1cc(O)c(C(C)C)cc1N=Cc1ccc(N(C)C)cc1 | inactive |  |
| CNC(=O)Oc1ccc2c(c1)[C@]1(C)CCN(C)[C@@H]1N2C | inactive |  |
| O=C1C(SCCO)=C(SCCO)C(=O)c2ccccc21 | inconclusive [inhibitor, partial curve] |  |
| N=c1n(CC(=O)c2ccc(Br)cc2)c2ccccc2n1Cc1ccccc1 | inactive |  |
| CC(C)(C)c1ccc(C(=O)NCCCN2CCN(CCCNC(=O)c3ccc(C(C)(C)C)cc3)CC2)cc1 | inconclusive [inhibitor, partial curve] |  |
| Cn1nc(C(=O)Nc2ccc(S(=O)(=O)N3CCCCC3)cc2)c2ccccc2c1=O | inconclusive [inhibitor, single point] |  |
| CC(C)C1Nc2ccc(S(=O)(=O)N3CCOCC3)cc2NC1=O (stereo unspecified) | inconclusive [inhibitor, full curve, poor fit] |  |
| Cc1cccc(OCC(=O)N/N=C/CC(C)c2ccccc2)c1C (stereo unspecified) | inconclusive [inhibitor, single point] |  |
| O=C(CCC(=O)c1ccc(F)cc1)NCC1(N2CCCCC2)CCCCC1 | inconclusive [inhibitor, partial curve] |  |
| O=C(CSc1nc(NS(=O)(=O)c2ccccc2)cc(=O)[nH]1)Nc1ccc(F)cc1 | inconclusive [inhibitor, partial curve] |  |
| O=S(=O)(NCc1ccccc1)c1ccc(S(=O)(=O)NCC2CCCO2)cc1 (stereo unspecified) | inconclusive [inhibitor, full curve, poor fit] |  |
| COC(=O)c1cccc(CN2C(=O)C(C)Oc3ccc(C)cc32)c1 (stereo unspecified) | inconclusive [inhibitor, partial curve] |  |
| NC(=O)c1cc(S(=O)(=O)Nc2cccc(F)c2)co1 | inconclusive [inhibitor, single point] |  |
| O=C(NCc1ccccc1)C1c2ccccc2OCC(=O)N1C1CC1 (stereo unspecified) | inactive |  |
| CN(C)C(=O)c1ccc(NC(=O)COC(=O)C2CCN(S(=O)(=O)c3ccc4c(c3)OCCO4)CC2)cc1 | inconclusive [inhibitor, partial curve] |  |
| O=C1/C(=C/c2ccco2)SC(=S)N1c1cccnc1 | inconclusive [inhibitor, partial curve] |  |
| CCN(CC)CC1CN(N=Cc2ccc([N+](=O)[O-])o2)C(=O)O1 (stereo unspecified) | inactive |  |
| Cc1ccc(CN2CCSc3ccc(C(=O)NCc4ccco4)cc32)cc1 | inconclusive [inhibitor, single point] |  |
| COc1cccc(OC)c1C(=O)Nc1ccc(S(=O)(=O)N2CCCCC2)cc1 | inconclusive [inhibitor, single point] |  |
| Cc1[nH]c2ccccc2c1/C=C(\C#N)C(=O)NCc1ccccc1 | inconclusive [inhibitor, partial curve] |  |

| Compound | Potency | activity change, negative = inhibition |
| --- | --- | --- |
| CCOC(=O)C1CCN(Cc2cnc(Oc3ccc(Cl)cc3C)s2)CC1 | inconclusive [inhibitor, single point] |  |
| Cc1ccc(/C=N/Nc2nc(C)cc(C)n2)cc1 | inconclusive [inhibitor, partial curve] |  |
| COc1ccccc1NC(=O)Nc1ccc(NC(=O)c2ccccc2O)cc1 | inconclusive [inhibitor, full curve, poor fit] |  |
| O=C(NNc1ccc(Cl)cc1)c1sccc1Cl | inconclusive [inhibitor, partial curve, poor fit] |  |
| O=[N+]([O-])c1ccc(Sc2n[nH]c(-c3ccccc3)n2)nc1 | inactive |  |
| COc1ccc(NC(=O)C2(C)Cc3c(-c4cccc(NC(C)=O)c4)ccnc3O2)cc1OC (stereo unspecified) |  | inconclusive: -18.1% [inhibitor] |
| N#Cc1c(N)c2ccccn2c1C(=O)c1ccc(Br)cc1 | inconclusive [inhibitor, full curve, poor fit] |  |
| CCOC(=O)Cn1nc(/C=C/c2ccc(C(C)C)cc2)ccc1=O | inconclusive [inhibitor, full curve, poor fit] |  |
| CCOC(=O)C1(CCc2ccccc2)CCN(Cc2ccc(O)cc2)CC1 | inactive |  |
| CSC1=NSC2=NC(=O)/C(=C\c3ccc(OC(=O)c4ccco4)cc3)C(=N)N12 | inconclusive [inhibitor, single point] |  |
| COc1ccc(C)cc1S(=O)(=O)Nc1cc2c3c(c1)CCN3C(=O)CC2 | inconclusive [inhibitor, single point] |  |
| O=C(CN1C(=O)NC2(CCCc3ccccc32)C1=O)N1CCCCC1 (stereo unspecified) | inconclusive [inhibitor, single point] |  |
| COc1ccc(NC(=O)COC(=O)c2ccc(S(=O)(=O)N(C)c3ccccc3OC)cc2)cc1OC | inconclusive [inhibitor, partial curve] |  |
| CC(C1CC1)N(C(=O)c1ccccc1O)c1ccccc1 (stereo unspecified) | inactive |  |
| COc1ccc(NS(=O)(=O)N2CCCCC2)cc1 | inactive |  |
| COc1ccc(NC(=O)c2cccc(Oc3ccccc3)c2)cn1 | inconclusive [inhibitor, single point] |  |
| C=CCN(CC=C)Cc1cc(=O)oc2cc(OC)c(Cl)cc12 | inactive |  |
| Cc1ccc(S(=O)(=O)N2C(=O)c3cccc4cccc2c34)cc1 | inconclusive [inhibitor, full curve, poor fit] |  |
| CCCCc1c(C(=O)O)cc(OC)cc1C(=O)O | inactive |  |
| CCCN1C(=O)C(Cc2nc3ccccc3c(=O)n2-c2ccccc2)c2cc(C)ccc21 (stereo unspecified) | inconclusive [inhibitor, full curve, poor fit] |  |
| CC1(C)CC(C(CCN(Cc2ccccc2)C(=O)c2ccco2)c2ccc(F)cc2)CCO1 (stereo unspecified) | inconclusive [inhibitor, partial curve] |  |
| O=C(CSc1nc2sc3c(c2c(=O)n1-c1ccccc1)CCCC3)N/N=C/c1ccccc1C(=O)O | inconclusive [inhibitor, full curve, poor fit] |  |

| Compound | Potency | activity change, negative = inhibition |
| --- | --- | --- |
| Cc1ccc(NC(=O)Cn2ncn3c(cc4ccccc43)c2=O)cc1F | inconclusive [inhibitor, single point] |  |
| O=C(Cc1ccc(Br)cc1)OCC(=O)N1CCc2ccccc2C1 | inconclusive [inhibitor, partial curve] |  |
| Cc1ccccc1C(=O)Nc1ccnn1C1CCN(C(=O)c2cnsn2)CC1 | inactive |  |
| O=S(=O)(Nc1cccc(S(=O)(=O)N2CCOCC2)c1)c1cccs1 | inconclusive [inhibitor, single point] |  |
| CCOC(=O)C1CCCN(C2=C(NS(=O)(=O)c3ccc(Br)cc3)C(=O)c3ccccc3C2=O)C1 (stereo unspecified) | inconclusive [inhibitor, single point] |  |
| CN(c1ccccc1)c1nc(N)c([N+](=O)[O-])c(NC2CCCCC2)n1 | inconclusive [inhibitor, single point] |  |
| COc1ccc(CN2CCCC(CNC(=O)c3ccc(F)cc3)C2)c(F)c1 (stereo unspecified) | inconclusive [inhibitor, partial curve] |  |
| Cc1ccc2nc(Cl)c(C3CC(c4ccco4)=NN3C(=O)CCCC(=O)O)cc2c1 (stereo unspecified) | inconclusive [inhibitor, partial curve] |  |
| COc1ccc(CNc2cccnc2)c(OC)c1OC | inconclusive [inhibitor, single point] |  |
| NC(=O)c1ccc(NC(=O)C2CC2)cc1 | inconclusive [inhibitor, single point] |  |
| N#Cc1sc2nc(C3CC3)cc(-c3ccc(Cl)cc3)c2c1N | inconclusive [inhibitor, partial curve] |  |
| C=CCOC(=O)C1=C(C)NC(SCC)=C(C#N)C1c1ccc(Cl)cc1 (stereo unspecified) | inconclusive [inhibitor, partial curve] |  |
| COc1cccc(/C=C2\SC(=S)N(C(Cc3ccccc3)C(=O)O)C2=O)c1 (stereo unspecified) | inconclusive [inhibitor, single point] |  |
| CN(Cc1ccco1)C(=O)CCc1nc2sc3c(c2c(=O)[nH]1)CCCC3 | inconclusive [inhibitor, full curve, poor fit] |  |
| O=C1OC(/C=C/c2ccc(Cl)cc2Cl)=NC/1=C\c1cccs1 | inactive |  |
| CC1CCCCN1C(=O)c1cc2nc(-c3ccccc3)cc(-c3ccccc3)n2n1 (stereo unspecified) | inactive |  |
| O=[N+]([O-])c1cc([N+](=O)[O-])c(Oc2cccc3ccccc23)cc1NN1CCCCC1 | inconclusive [inhibitor, single point] |  |
| COc1cccc(NC(=O)c2cc(-c3ccc(C)o3)nc3ccccc23)c1 | inactive |  |
| Cc1ccc2c(c1)C1CN(C)CCC1N2Sc1ccccc1[N+](=O)[O-] (stereo unspecified) | inconclusive [inhibitor, partial curve] |  |
| COc1cccc(NC(=O)CN(C)C(=O)CNC(=O)c2sc3ccccc3c2Cl)c1 | inactive |  |
| CN(C)c1ccc(N=Nc2ccc(S(=O)(=O)O)cc2)c2ccccc12 | inconclusive [inhibitor, partial curve] |  |
| CCOc1cc(/C=C2/NC(=O)NC2=O)cc([N+](=O)[O-])c1O | inconclusive [inhibitor, full curve, poor fit] |  |
